About 540 (0.36%) of roughly 150,000 compounds showed an effect of 50% or more. The list shows a part of the results.
Tested on: Plasmodium falciparum
Experiment: Primary screen in NF54 nanoGlo assay, in single point, at 2uM, 72h; a lower Z score goes with more inhibition
Assay type: functional, Erythrocyte
Conditions: timepoint 72 hour

Structure (SMILES) | % Inhibition [%] | Z score
CN1[C@@H](c2ccc(Cl)cc2)[C@@H](C(=O)NCCc2c[nH]cn2)C[C@@]1(C)C(=O)O | -4 | 0.77
O=C1COC2(CCN(C(=O)NCc3ccncc3OCC(F)F)CC2)N1 | -13 | 1.98
CCC=C(C)C(=O)NC1CCN(S(C)(=O)=O)CC1 | 4 | -0.5
CN(CCC1(O)CCCC1)C(=O)Cc1cnc2ccccn12 | -10 | 1.97
CC(C)(CN1CCC([C@@H](O)CCc2ccccc2)CC1)N1CCOCC1 | 0 | 0.07
CN(Cc1cc(C[C@@H]2C[C@H](N(C)C)C2(C)C)no1)c1ccccc1 | 14 | -1.8
O=S(=O)(c1ccc(F)c(Cl)c1)N(Cc1cccs1)C1CCOCC1 | -12 | 1.93
Cc1cnc(NC(=O)[C@@H]2CCCCN2C(=O)C(C)C)s1 | -10 | 1.53
COc1cnc(NC(=O)N(Cc2ccoc2)C2CC2)s1 | -8 | 1.51
COc1ccc(Cl)c(NC(=O)[C@@H]2CCCCC(=O)N2)c1 | -5 | 0.68
Cc1nc(N2CCc3[nH]nc(C(C)C)c3C2)c2nc(C)oc2n1 | -6 | 0.91
Cc1nnc(NCC(C)(C)C2(O)CCCC2)s1 | -9 | 1.4
CS(=O)(=O)c1c(-c2ccccc2)n(-c2ccc(Cl)cc2)c2nc3ccccc3nc12 | -7 | 1.07
Cc1cc(OC(=O)Cc2csc(-c3cccnc3)n2)cc(C)c1Cl | 3 | -0.48
CCOc1cccc2nnc(NC(=O)Nc3ccccc3C(F)(F)F)n12 | -3 | 0.56
Cc1cccnc1NCCN[C@@H](C)CN1CCCCCC1 | 0 | -0.05
COc1ccc(Cc2nc(-c3cccc(-c4csc(C)n4)c3)no2)cc1Cl | -7 | 0.84
COc1cc(C)ccc1C(=O)N[C@@H](C1CCOCC1)C1(CO)CCC1 | -6 | 0.79
COCCN(CC(=O)Nc1c(C)n[nH]c1C)Cc1ccc(C)o1 | 1 | -0.09
CC(C)(C)OC(=O)N[C@H](Cc1ccc(Cl)cc1)C(=O)O | -2 | 0.32
O=C(O)CCNCc1ccc(Br)c(F)c1 | -2 | 0.32
CC(C)C1=NO[C@H](C(=O)NCCc2ccc(S(N)(=O)=O)cc2)C1 | -8 | 1.04

Structure (SMILES) | % Inhibition [%] | Z score
CC[C@@H](CNC(=O)c1cncn1C)N1CCOCC1 | -4 | 0.44
O=C(c1csc(S(=O)(=O)Nc2cccc(-c3ccno3)c2)c1)N1CCCCCC1 | 7 | -0.82
CCc1nccn1[C@@H](C)CC(=O)N1CCN(c2nnc(C)s2)CC1 | -5 | 0.75
Cc1ccc(C(F)(F)F)cc1NC(=O)N1CCC[C@H]1c1nncn1C | 31 | -3.99
Cc1c(C)[n+]([O-])c([C@@H](c2ccc(F)c(F)c2)C2C(=O)OC(C)(C)OC2=O)n1C | -2 | 0.28
COc1ncccc1[C@H]1CCN(C(=O)c2c[nH]c(C(F)(F)F)c2)C1 | -18 | 2.08
Cc1c(Cl)cc(C(=O)N2CCN[C@@H]3CS(=O)(=O)C[C@@H]32)cc1Cl | 20 | -2.52
CCc1c(C(=O)Nc2cnc(O)cc2C)cnn1-c1ccccc1 | -6 | 0.84
CC(C)(C)c1coc(CC2CCN(Cc3nc(=O)[nH][nH]3)CC2)n1 | 1 | -0.15
Cn1ncc2c(N3CCCC3)nc(C(=O)NCCCN3CCCC3)nc21 | -11 | 1.07
CCCn1ncc(CN2CCC[C@H]2COC)c1C | 11 | -1.51
CCN(Cc1c(C(=O)N2C[C@@H](C)O[C@@H](C)C2)nc2ccc(Cl)cn12)C1CC1 | -7 | 1.03
CN(Cc1cn2ccccc2c1C#N)C1CCCC1 | -2 | 0.18
N#C[C@@H](C(=O)c1cc2ccccc2[nH]1)c1nc2ccccc2s1 | 16 | -2.03
CCc1nn(C)c(CC)c1CC(=O)Nc1c(OC)ncnc1N(C)C | 3 | -0.57
COc1cnccc1CNC(=O)[C@]1(O)CCc2cc(Br)ccc2C1 | -5 | 0.75
Cc1ccc(O[C@H]2COCC[C@H]2NC(=O)c2sccc2C)cn1 | 9 | -1.24
CCN(C[C@H]1CCOC1)C(=O)c1ccc(-n2cnnn2)cc1 | -13 | 2.08
CCC(C(=O)Nc1ccc2c(c1)CN(Cc1cccc(OC)c1)C(=O)C(C)O2)c1ccccc1 (stereo not given) | -4 | 0.54
COc1ccc(CNC(=O)c2cc(-c3ccc(C)cc3)nc3n[nH]c(-c4ccc(OC)cc4)c23)cc1 | -24 | 2.24
O=C(Cc1ccc(O)cc1)NCc1ccccc1CN1CC[C@H](O)C1 | -8 | 0.96
CC(C)(Cc1ccc(Cl)cc1Cl)NC(=O)c1cccc(=O)[nH]1 | -20 | 1.98

Structure (SMILES) | % Inhibition [%] | Z score
COc1ccc(C(=O)N2CCC3(CC2)C[C@@H](CNS(C)(=O)=O)CCO3)cn1 | -3 | 0.47
C[C@@H](C1CC1)N(C)Cc1nc(-c2cccs2)no1 | -4 | 0.36
CN(C)C(=O)c1ccc(CNS(=O)(=O)N2CCCC2)o1 | -4 | 0.77
c1ccc(C2OCCC2NCc2ccsc2)cc1 (stereo not given) | -7 | 0.94
Cn1ccc(CNC(=O)N2CCCC3(CCCCC3)C2)n1 | -14 | 1.41
Cc1cc(C2CCC2)nc(N2CCN[C@H](C(=O)O)C2)n1 | 0 | 0.01
Cn1cc(N)c(C(=O)NC[C@H]2CCCO2)n1 | 32 | -3.64
CCCc1nnc(NC(=O)C2=NN(c3ccccc3)[C@H](C(N)=O)C2)s1 | 7 | -0.86
Cn1ncc2c(NCCCO)nc(N3CCCCC3)nc21 | -2 | 0.23
COCC(C)(C)C(=O)N1CCC[C@H](c2ccncc2)CC1 | -7 | 1.4
O=C(C[C@@]1(O)C(=O)Nc2c(Cl)cccc21)c1ccccn1 | 1 | -0.1
COc1ccc(CC(=O)N2CCC3(CC2)NC(=O)N(C)C3=O)cc1 | -4 | 0.85
CN(C)CC(=O)NC(C)(C)c1cccc(Cl)c1F | 2 | -0.23
CCN1C(=O)c2c(C(=O)Nc3ccc(C)cc3)ncn2C[C@@]1(C)C(=O)NCc1ccc(OC)cc1 | -12 | 1.94
Cc1noc(-c2cn(C3CCN(C(=O)c4cccc(C#N)c4)CC3)nn2)n1 | -23 | 2.68
Cc1ccc(OCC(N)=O)c(-c2ccc(C(=O)NC[C@H]3CCN(C)C3)cc2)c1 | -9 | 1.32
Cc1cc(C)nc(N[C@H]2CCCN(Cc3cccc(O)c3)C2)n1 | 12 | -1.96
CC1CCCN(C(=O)c2cccc3c2OCO3)C1CN (stereo not given) | 9 | -1.73
CCN(CC)CC(=O)NC1(Cc2ccc(O)cc2)CCCCC1 | -2 | 0.31
Cc1cc(-c2nc3ccccc3s2)ccc1NC(=O)Nc1cccc(Cl)c1 | -5 | 0.71
COc1ccc(N2CCN(c3nc4ccccc4c(=O)n3-c3cccc(C)c3C)CC2)cc1 | 5 | -0.73
Cc1ccc(F)c2oc(C(=O)NC[C@H]3CC(=O)N(C)[C@@H]3c3cnn(C)c3C)cc12 | 6 | -1.14

Structure (SMILES) | % Inhibition [%] | Z score
Cc1nn(C[C@H]2CCOC2)c(N)c1C#N | 8 | -1.52
CC(C)(C)c1cc(C(F)(F)F)nc(NC(=O)NS(=O)(=O)N(Cc2ccccc2)c2ccccc2)n1 | -4 | 0.69
Cc1c(-c2c(-c3ccccc3)ncn2CC(N)=O)c2ccccc2n1CC(=O)O | 2 | -0.29
CCOc1cncc(CNc2cc(Br)ccc2CO)c1 | 17 | -1.98
CCCn1cnc2cc(-c3noc(CNC(=O)c4cccs4)n3)ccc21 | 8 | -1.09
Cc1ccc(NC(=O)c2c(C)noc2C2CC2)c(C)c1O | -2 | 0.19
Cc1csc(N2C(=O)[C@H](C)N(C3CC3)C2=O)n1 | 0 | 0.03
O=C(CC(F)(F)F)Nc1ccccc1F | -6 | 0.62
COc1cc2c(cc1OC)CN(C(=O)c1nc(N3CCOCC3)ncc1Cl)CC2 | 3 | -0.44
Cc1cnn([C@@H](C)C2CC2)c1NC(=O)NCc1sc(C(C)C)nc1C | -2 | 0.3
C[C@H]1C(=O)NCCN1Cc1nnc(C(C)(C)C)o1 | 1 | -0.21
CN(Cc1cnnn1Cc1ccccc1)CC1(O)CCOCC1 | -7 | 0.94
Cc1nn(-c2ccc3nncn3n2)c2c1[C@@H](c1ccc(F)cc1)CC(O)=N2 | -6 | 0.77
Cc1cn2nc(N[C@H]3CCN(C(=O)c4cc(F)c[nH]4)C3)ccc2n1 | -4 | 0.57
OCC[C@H]1CCCCN1c1ccc(CNc2ncccn2)cn1 | 14 | -1.53
O=C(c1ccco1)n1nc(-c2ccco2)oc1=S | -10 | 1.4
c1ccc(CCc2cn(CCN3CCNCC3)nn2)cc1 | -23 | 2.01
O=S(=O)([C@H]1CCN(c2ccnc3c(F)cccc23)C1)N1CCCC1 | -1 | 0.07
CC(=O)OC(COC1C[C@@H]2CC[C@@]1(C)C2(C)C)C[N+]1(C)CCCCC1 (stereo not given in full) | -3 | 0.33

— ChEMBL document CHEMBL4888484, “Replenishing the malaria drug discovery pipeline: Screening and hit evaluation of the MMV Hit Generation Library 1 (HGL1) against asexual blood stage Plasmodium falciparum ,using a nano luciferase reporter read-out” (2022)
